Source: the GPR68 mutational scans of Howard et al. (2025)
Scores whose standard error is large were omitted. Not listed are two conditions whose scores span a narrow range. In variant names, del marks residues removed and ins residues inserted between the two positions. For some of these results: The data file names ogerin without a concentration.

B1: GPR68, Q15743 (parent)
chain: MGNITADNSSMSCTIDHTIHQTLAPVVYVTVLVVGFPANCLSLYFGYLQIKARNELGVYLCNLTVADLFYICSLPFWLQYVLQHDNWSHGDLSCQVCGILLYENIYISVGFLCCISVDRYLAVAHPFRFHQFRTLKAAVGVSVVIWAKELLTSIYFLMHEEVIEDENQHRVCFEHYPIQAWQRAINYYRFLVGFLFPICLLLASYQGILRAVRRSHGTQKSRKDQIQRLVLSTVVIFLACFLPYHVLLLVRSVWEASCDFAKGVFNAYHFSLLLTSFNCVADPVLYCFVSETTHRDLARLRGACLAFLTCSRTGRAREAYPLGAPEASGKSGAQGEEPELLTKLHPAFQTPNSPGSGGFPTGRLA

Columns and labels:
[1] = variants of: B1; test: cAMP reporter score (Enrich2 score, wild type = 0); higher = more signal; HEK293T, FACS bins
[2] = variants of: B1; test: surface expression score (Enrich2 score, wild type = 0); higher = more signal; HEK293T, FACS bins

Row | Variant | cAMP reporter score ([1]; pH 5.5) | cAMP reporter score ([1]; pH 6) | cAMP reporter score ([1]; pH 6, modulator: ogerin) | cAMP reporter score ([1]; pH 6.5, modulator: ogerin) | surface expression score [2]
1 | L135_K136insGS | -0.823 | -1.15 | -2.25 | -1.24 | -2.5
2 | L135_K136insG | -0.657 | -1.1 | -1.74 | -0.545 | -2.13
3 | F132_T134del | -1.73 | -0.642 | -1.6 | -1.09 | -2.69
4 | K136_A137insGS | -1.48 | -1.78 | -2.57 | -0.85 | -2.33
5 | F127_F129del | -1.33 | -0.423 | -1.14 | -0.993 | -3.73
6 | H125R | -0.752 | -0.307 | -1.27 | -0.673 | -0.74
7 | H125Q | 1.14 | -0.638 | 0.576 | 0.188 | -0.927
8 | H125V | -2.59 | – | – | -0.333 | -2.76
9 | H125T | -1.66 | -1.19 | -1.03 | -0.634 | -2.14
10 | H125S | -0.776 | -0.798 | – | -0.602 | –
11 | H125Y | -0.406 | -0.313 | -0.469 | -0.523 | -0.538
12 | H125W | -0.776 | -1.12 | -0.99 | -1.53 | -1.06
13 | F127_R128insG | -0.077 | – | -0.012 | -0.978 | -1.29
14 | A138_V139del | -1.4 | -0.916 | -1.38 | -1.31 | -3.58
15 | V139_G140insGS | -1.41 | -1.2 | -1.53 | -1.34 | -2.13
16 | S142_V143insGSG | -1.26 | 0.979 | -0.627 | -0.722 | –

Row | Variant | cAMP reporter score ([1]; pH 5.5) | cAMP reporter score ([1]; pH 6) | cAMP reporter score ([1]; pH 6, modulator: ogerin) | cAMP reporter score ([1]; pH 6.5, modulator: ogerin) | surface expression score [2]
17 | A137_A138insGS | -1 | -1.31 | -0.742 | -0.627 | -2.07
18 | F127T | -0.614 | -0.906 | -1.48 | -0.844 | 2.11
19 | F127A | -0.914 | -0.361 | 0.366 | 1.25 | –
20 | F127W | -0.31 | -0.604 | -0.145 | -1.46 | –
21 | F127V | 0.011 | -0.811 | -0.729 | -1.45 | -0.263
22 | F127C | 0.982 | -0.828 | – | – | -0.128
23 | F127Y | -0.552 | -1.12 | -1.12 | -2.03 | -0.388
24 | F127L | 0.042 | -1.79 | 1.09 | -0.019 | 0.824
25 | F127N | -0.718 | -0.702 | -1.53 | -1.09 | 2.03
26 | F127I | -0.698 | -0.517 | -1.1 | -0.271 | -0.816
27 | F127R | -1.24 | -1.08 | -1.64 | -1.62 | 1.11
28 | F127S | -1.71 | -0.568 | – | -0.936 | 1
29 | F127M | 0.122 | -0.433 | 0.575 | – | 0.865
30 | F127K | -1.62 | -0.839 | -1.42 | -0.779 | 1.32
31 | F127P | -1.3 | -1.03 | -1.28 | -0.607 | -1.38
32 | F127E | -0.174 | -1.47 | -1.38 | -0.48 | 0.832
